Measurements reported in PubChem BioAssay AID662 (National Center for Advancing Translational Sciences (NCATS), 2007).
About 1,800 (2.5%) of roughly 71,000 compounds were called active. Inconclusive results, whose numbers are uncertain, are shown with a selection of clear calls. Calls follow the shape of the dose curve; as a rule, active = well fitted activation curve with a large enough effect in the signal ratio, with a control signal flat (not every such curve was filed as active); inconclusive = small, poorly fitted or top-dose-only effect, or effect the other way, or a change in a side signal; inactive = flat fitted curve, though single readings scatter; the % refers to the signal ratio. Potencies of inconclusive entries are doubtful fits and often do not repeat.

Assay: Cell signaling CRE-BLA (Fsk stim); as to activity change, negative = inhibition: % of control where 0% means no effect
Conditions: CHO CRE-bla reporter (cAMP response element driving beta-lactamase), forskolin EC10, beta-lactamase ratio; activity change, negative = inhibition: at 38.2 µM (top of the series) unless noted
Method in brief: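 Beta-lactamase reporter under a cAMP responsive element in CHO cells; compounds tested in titration series against EC10 NKH 477, 3 h at 37 °C. Read-out: CCF4 FRET ratio 460nm/530nm (excitation 405nm) giving %Activity, fitted to AC50.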
Potency is read from the fitted curve at half-maximal effect; tags tell the direction and shape of the fitted curve.

Row | Structure (SMILES) | Potency | activity change, negative = inhibition
1 | O=C(O)CCCC(=O)Nc1nc(-c2ccc(F)cc2)cs1 | inconclusive: 3.98 µM [rising, partial curve] | –
2 | COc1cccc(N(CC(=O)NC(C)c2ccccc2)S(C)(=O)=O)c1 (configuration not stated) | inconclusive: 0.02 µM [rising, single point] | –
3 | COc1ccc(NC(=O)N2CC3(CCN(C(=O)c4ccncc4)CC3)C2)cc1 | – | inactive
4 | CN1C(=O)NC(c2ccccc2)C2=C1CN(c1cccc(C(F)(F)F)c1)C2=O (configuration not stated) | – | inconclusive: 4.81%
5 | c1ccc(COn2nnc3ccccc32)c(COn2nnc3ccccc32)c1 | inconclusive: 12.6 µM [rising, single point] | –
6 | COc1cccc(C(=O)NCC(=O)N2CCC(C)CC2)c1 | – | inactive
7 | CC1(C)OC(=O)C(=C2CCCN2)C(=O)O1 | inconclusive: 5.01 µM [rising, partial curve] | –
8 | COCCNC(=O)c1c(N)n(-c2cccc(C)c2)c2nc3ccccc3nc12 | active: 10 µM | –
9 | CN(C)c1ncc2nc(-c3ccc(F)cc3)c(=O)n(CCc3ccccc3)c2n1 | inconclusive: 0.501 µM [rising, full curve] | –
10 | COc1ccc(-n2c(SCCC#N)nnc2-c2cc(Cl)ccc2OC)cc1Cl | inconclusive: 10 µM [rising, partial curve] | –
11 | COc1ccc(C2C(=O)N(C3CCCCC3)CC(=O)N2Cc2ccc3c(c2)OCO3)cc1 (configuration not stated) | inconclusive: 12.6 µM [falling, single point] | –
12 | Cn1c(=O)c(-c2cc(F)cc(F)c2)nc2cnc(Oc3ccccc3)nc21 | – | inconclusive: 25%
13 | CNC[C@H](O)c1ccc(O)c(O)c1 | – | inactive
14 | CNC(=O)c1cc2c(=O)n3cc(C)ccc3nc2n(C(C)C)c1=N | active: 12.6 µM | –
15 | Cc1cc(C)c2c(n1)nn1c(N3CCOCC3)cc(C)nc21 | inconclusive: 0.631 µM [rising, partial curve] | –
16 | Cc1noc(C)c1-c1ccc2ncnc(NCc3ccccc3)c2c1 | inconclusive: 10 µM [rising, partial curve] | –
17 | CN(C)C(=O)c1ccc(-c2cc(Nc3ccccc3)ncn2)cc1 | – | inconclusive: 20.7%
18 | COC(=O)c1ccccc1NC(=O)COc1ccccc1 | inconclusive: 25.1 µM [rising, single point] | –
19 | CCCCC(=O)Nc1cccc2c1C(=O)N(c1ccccc1)C2=O | – | inconclusive: 17.5%
20 | Cc1ccc2nc(-c3ccc(NC(=O)c4ccco4)cc3)[nH]c2c1 | – | inactive
21 | CC(C)CC(=O)Nc1ccc(-c2cn3ccsc3n2)cc1 | – | inactive
22 | CC(Oc1ccc(Cl)cc1Cl)C(=O)N(Cc1ccco1)C1CCS(=O)(=O)C1 (configuration not stated) | inconclusive: 12.6 µM [rising, single point] | –
